The whole screen tested about 230,000 compounds, of which fewer than 10 were called active. This list was built around the results that the source calls inconclusive (neither active nor inactive); the mix of calls is not that of the screen. Calls follow the shape of the dose curve; as a rule, active = well fitted curve in the direction sought with a large enough effect; inconclusive = small, poorly fitted or top-dose-only effect, or effect the other way, or another doubt; inactive = no such curve, though single readings can be large or run the other way. Potencies of inconclusive entries are left out as doubtful fits.
The compounds below were run against Runt-related transcription factor 1 (Homo sapiens) + Core-binding factor subunit beta (Homo sapiens) (UniProt Q01196+Q13951) (assay: qHTS Assay for Compounds Blocking the Interaction Between CBF-beta and RUNX1 for the Treatment of Acute Myeloid Leukemia). Settings: AlphaScreen CBFb-His/RUNX1-biotin binding, biochemical; series mostly up to 59.8 µM.
Sequence of UniProt Q01196 (Q01196 whole entry, looked up): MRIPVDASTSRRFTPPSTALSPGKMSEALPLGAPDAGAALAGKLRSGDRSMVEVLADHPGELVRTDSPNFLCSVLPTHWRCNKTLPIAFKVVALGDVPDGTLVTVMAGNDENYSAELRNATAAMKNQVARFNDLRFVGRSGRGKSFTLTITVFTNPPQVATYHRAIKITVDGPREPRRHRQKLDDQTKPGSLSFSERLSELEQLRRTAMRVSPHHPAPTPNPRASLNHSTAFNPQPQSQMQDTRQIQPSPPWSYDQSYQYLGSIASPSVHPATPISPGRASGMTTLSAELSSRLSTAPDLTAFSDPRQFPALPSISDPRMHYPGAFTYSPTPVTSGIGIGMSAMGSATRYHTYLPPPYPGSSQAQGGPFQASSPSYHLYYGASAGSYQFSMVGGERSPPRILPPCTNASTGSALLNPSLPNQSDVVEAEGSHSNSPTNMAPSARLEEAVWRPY
Sequence of UniProt Q01196 (Q13951 whole entry, looked up): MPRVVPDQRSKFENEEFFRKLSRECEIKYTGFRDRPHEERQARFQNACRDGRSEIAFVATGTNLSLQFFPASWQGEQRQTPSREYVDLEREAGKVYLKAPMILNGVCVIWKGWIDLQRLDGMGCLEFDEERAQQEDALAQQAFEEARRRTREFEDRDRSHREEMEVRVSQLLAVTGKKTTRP
In short: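 Bead-based AlphaScreen assay; binding partners His-tagged CBF-beta and biotinylated RUNX1 at 30 nM each. Compound exposure 15 min after a 20-min protein preincubation; bead step 90 min; all steps at room temperature.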

SMILES | Potency
Cc1cc(C(=O)Nc2ccc(N3CCCC3)c(Cl)c2)ccc1[N+](=O)[O-] | inconclusive [inhibitor, single point]
CC(=O)c1ccc(N2CCN(Cc3nc(Cc4ccccc4)no3)CC2)cc1 | inactive
Cc1cccc(OCCCn2c(=O)oc3ccc(C)cc32)c1 | inconclusive [activator, single point]
COC(=O)c1ccccc1NC(=O)CSc1ccc(C)cc1 | inconclusive [activator, single point]
N#Cc1nc(COc2ccc(Br)cc2)oc1N1CCCC1 | inconclusive [inhibitor, single point]
CCOC(=O)/C(C#N)=C1\CCCN1CC(N)=S | inconclusive [activator, partial curve, poor fit]
CC1CN(C(=O)CSc2nnc(-c3ccncc3)n2-c2ccccc2)CC(C)O1 (centres undefined) | inconclusive [inhibitor, single point]
C[C@@H](C(=O)Nc1ccc2ccccc2c1)[C@H]1C[C@]1(C)[C@H](NC(=O)c1cnccn1)c1ccccc1 | inactive
CCOC(=O)N1CCN(c2cc(NCCC(=O)O)c3c4c(onc24)-c2ccccc2C3=O)CC1 | inconclusive [inhibitor, single point]
CCCCCc1c(C)nc(N2CCc3ccccc3C2)[nH]c1=O | inactive
Cc1cc2c(s1)NC(=O)CN=C2c1cccs1 | inactive
CCCCC(=O)N/N=C/c1c(O)n(CCc2ccc(OC)c(OC)c2)c(=O)[nH]c1=O | inconclusive [inhibitor, full curve]
O=C(O)c1cc(-c2ccco2)nn1-c1cccc(Cl)c1 | inconclusive [inhibitor, single point]
Cc1cc(C)c(S(=O)(=O)Nc2ccc(-c3cn4ccccc4n3)cc2)c(C)c1 | inconclusive [inhibitor, single point]
COC(=O)CSc1nnc(-c2ccco2)n1Cc1ccco1 | inactive
Cc1[nH]n(-c2ncc(-c3ccc(Cl)cc3)s2)c(=O)c1C(c1ccc(Cl)cc1)C(C#N)C#N (centres undefined) | inconclusive [inhibitor, partial curve]
O=C1c2ccccc2C(=O)c2cc(S(=O)(=O)Nc3ccccc3)ccc21 | inconclusive [inhibitor, partial curve]
O=C(Nc1cc(Cl)cc(Cl)c1)c1coc(=O)c(Br)c1 | inconclusive [inhibitor, single point]
CCN(CC)c1ccc(C(=O)N/N=C(\C)c2ccc(O)cc2)cc1 | inactive
CN1CCc2nc3ccccc3c(C(=O)OCC(=O)N(CCC#N)c3ccccc3)c2C1 | inconclusive [inhibitor, single point]
CC(C)Oc1cccc(C(=O)NC(=S)N2CCN(c3ccc(C(F)(F)F)cc3[N+](=O)[O-])CC2)c1 | inconclusive [inhibitor, single point]
CCOC(=O)c1cnc2c(OC)cccc2c1N1CCN(c2ccc(OC)cc2)CC1 | inactive

SMILES | Potency
CC(=O)c1c(N2CCN(c3ccccn3)CC2)nc(=S)n(-c2ccccc2)c1C | inconclusive [activator, full curve]
COc1ccc2c(c1)CCc1cn3nc(C)cc3nc1-2 | inconclusive [activator, partial curve]
COc1ccc(-n2cnc3cc(NCc4ccccn4)ccc32)cc1 | inconclusive [inhibitor, single point]
CCOC(=O)c1ccc(NC(=O)CSc2nc(C)cc(=O)[nH]2)cc1 | inactive
CN(C(=O)CSc1nnc(-c2ccc(F)cc2)c2ccccc12)C1CCS(=O)(=O)C1 (centres undefined) | inconclusive [inhibitor, partial curve]
COc1ccc(/C=N/Nc2cc(N3CCCC3)nc(N3CCCC3)n2)cc1 | inconclusive [inhibitor, single point]
COc1ccc(-n2nc([N+](=O)[O-])c(=NCCc3ccc(C)cc3)n2O)cc1 | inconclusive [inhibitor, single point]
CC(=O)Nc1ccc(C2C(=O)c3ccccc3C2=O)cc1 | inactive
COc1ccc(C2C(C#N)=C(N)Oc3cc(N)ccc32)cc1OC (centres undefined) | inconclusive [inhibitor, partial curve]
O=C1CCC(=O)N1OCCCOc1ccc(Br)cc1Cl | inconclusive [activator, partial curve]
CSc1cc2c(cc1C(F)(F)F)N(C(=O)Nc1cccnc1)CC2 | inconclusive [activator, full curve]
C=CCOc1ccccc1/C=c1\sc2nc(=O)c(C)nn2c1=O | inconclusive [inhibitor, single point]
COC(=O)/C=C/c1ccc(C(=O)NCC(=O)N[C@@H](CCC(=O)OC)C(=O)N[C@@H](CC(C)C)C(N)=O)cc1 | inactive
CN(C)c1ccc(/C=N/NC(=S)NCc2ccccc2)cc1 | inconclusive [inhibitor, single point]
C[C@@H]1OC(O[C@H]2[C@H](Oc3cc(O)c4c(=O)c(O)c(-c5ccc(O)cc5)oc4c3)O[C@H](CO)[C@@H](O)[C@@H]2O)[C@H](O)[C@H](O)[C@H]1O (some centres undefined) | inactive
O=C(c1cccs1)n1cc(C(=S)N2CCOCC2)c2ccccc21 | inconclusive [inhibitor, full curve, poor fit]
CC(=O)Nc1cccc(NC(=O)CSc2nnnn2C)c1 | inconclusive [inhibitor, single point]
CCC(C)CCCCNC1=NCCS1 (centres undefined) | inactive
Cc1ccc[n+](CC(=O)Nc2cc(C(F)(F)F)ccc2N2CCOCC2)c1 | inactive
COC(=O)c1cc(OC)c(OC)cc1NC(=S)Nc1cc(Cl)ccc1OC | inactive
COc1ccc(NC(=O)C2CCCN2C(=O)NCc2ccccc2)cc1 (centres undefined) | inconclusive [activator, single point]
C=CC(C1=CC(=O)C(OC)=CC1=O)c1ccccc1 (centres undefined) | inconclusive [inhibitor, single point]

Source: PubChem BioAssay AID1477 (National Center for Advancing Translational Sciences (NCATS), 2009)
